{"source": "patent US20100173845A1", "about": "“USE OF FERTIRELIN AND DELTA-ENDORPHIN AS THERAPEUTIC AGENTS” (priority 2007, published 2010)", "tested_on": "HIV-1IIIB", "test": "HIV-1 antiviral assay (cytopathic effect, MTS staining)", "details": "for antiviral activity of positive control compounds: HIV-1 infected CEM-SS cells; for reduction of cytopathic effect (CPE) in HIV-1 infected CEM-SS cells: 10 micrograms per ml, 6 days post-infection, MTS", "note": "Where a SMILES comes first, the peptide text is derived from it. Where no end group is shown, it is not given here. [ ]: non-standard residue; d: D form. pGlu = O=C1CC[C@@H](C(=O)O)N1"}
{"compound": "Cc1cn([C@H]2C[C@H](N=[N+]=[N-])[C@@H](CO)O2)c(=O)[nH]c1=O", "note": "[AZT, zidovudine, reference compound]", "values": [{"measurement": "antiviral activity of positive control compounds", "result": "expected levels of antiviral activity"}]}
{"compound": "CC(C)(C)NC(=O)[C@@H]1CN(Cc2cccnc2)CCN1C[C@@H](O)C[C@@H](Cc1ccccc1)C(=O)N[C@H]1c2ccccc2C[C@H]1O", "note": "[indinavir, reference compound]", "values": [{"measurement": "antiviral activity of positive control compounds", "result": "expected levels of antiviral activity"}]}
{"compound": "YGGFMTSEKSQTPLVTLFKNAIIKNAY [Peptide 2]", "values": [{"measurement": "reduction of cytopathic effect (CPE) in HIV-1 infected CEM-SS cells", "result": 29.6, "unit": "%"}]}
{"compound": "CCNC(=O)[C@@H]1CCCN1C(=O)[C@H](CCCNC(=N)N)NC(=O)[C@H](CC(C)C)NC(=O)CNC(=O)[C@H](Cc1ccc(O)cc1)NC(=O)[C@H](CO)NC(=O)[C@H](Cc1c[nH]c2ccccc12)NC(=O)[C@H](Cc1c[nH]cn1)NC(=O)[C@@H]1CCC(=O)N1", "note": "[Peptide 1] ([pGlu]HWSYGLRP-NHEt)", "values": [{"measurement": "reduction of cytopathic effect (CPE) in HIV-1 infected CEM-SS cells", "result": 50.4, "unit": "%"}]}
